Assays:
[1] = molecular target: all TGFβ1 LLCs in the LN229 activation assays; assay: cell-based or functional assay
[2] = molecular target: latent TGFβ1 from human, rat, and cynomolgus monkey (LN229 transfectants); assay: cell-based or functional assay

- IC50, integrin-mediated activation in LN229/CAGA12 co-culture [1]: 1.15 to 1.42 nM
- IC50, activation of latent TGFβ1 in LN229/CAGA12 co-culture [2]: 1.02 to 1.11 nM
B1: Ab6 (antibody)
heavy: EVQLVESGGGLVQPGGSLRLSCTASGFTFSSFSMDWVRQAPGKGLEWVSYISPSADTIYYADSVKGRFTISRDNAKNTLYLQMNSLRAEDTAVYYCARGVLDYGDMLMPWGQGTLVTVSSASTKGPSVFPLAPCSRSTSESTAALGCLVKDYFPEPVTVSWNSGALTSGVHTFPAVLQSSGLYSLSSVVTVPSSSLGTKTYTCNVDHKPSNTKVDKRV[not shown - human IgG4 Fc with S228P (EU numbers)]
light: DIQMTQSPSSLSASVGDRVTITCQASQDITNYLNWYQQKPGKAPKLLIYDASNLETGVPSRFSGSGSGTDFTFTISSLQPEDIATYYCQQADNHPPWTFGGGTKVEIKRTVAAPSVFIFPPSDEQLKSGTASVVCLLNNFYPREAKVQWKVDNALQSGNSQESVTEQDSKDSTYSLSSTLTLSKADYEKHKVYACEVTHQGLSSPVTKSFNRGEC
